{
  "source": "the supplement of paper PMC8728848",
  "experiment_in_all_cases": "glycan array binding signal (z-score within array); higher = stronger binding",
  "details_in_all_cases": "glycan notation: IUPAC condensed, linker removed",
  "key": {"[1]": {"biological_target": "Gal(b1-3)GlcNAc(b1-3)Gal(b1-4)GlcNAc(b1-2)Man(a1-3)[Gal(b1-3)GlcNAc(b1-3)Gal(b1-4)GlcNAc(b1-2)Man(a1-6)]Man(b1-4)GlcNAc(b1-4)GlcNAc", "summary_of_the_method": "(§1)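 Glycan array data were curated from 3228 arrays in the Consortium for Functional Glycomics database and kept only where the protein sequence was available. Glycan names were converted to IUPAC-condensed notation, and columns mapping to the same glycan were averaged. The binding signal is a within-array Z-score, averaged across arrays of the same protein sequence at different concentrations or buffers and across linkers. Negative Z-scores can be read as non-binding.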"}, "[2]": {"biological_target": "Gal(b1-3)GlcNAc(b1-3)Gal(b1-4)GlcNAc(b1-2)[Gal(b1-3)GlcNAc(b1-3)Gal(b1-4)GlcNAc(b1-6)]Man(a1-6)[Gal(b1-3)GlcNAc(b1-3)Gal(b1-4)GlcNAc(b1-2)Man(a1-3)]Man(b1-4)GlcNAc(b1-4)[Fuc(a1-6)]GlcNAc", "summary_of_the_method": "as §1"}, "[3]": {"biological_target": "Gal(b1-3)GlcNAc(b1-3)Gal(b1-4)GlcNAc(b1-3)Gal(b1-4)GlcNAc(b1-2)[Gal(b1-3)GlcNAc(b1-3)Gal(b1-4)GlcNAc(b1-3)Gal(b1-4)GlcNAc(b1-6)]Man(a1-6)[Gal(b1-3)GlcNAc(b1-3)Gal(b1-4)GlcNAc(b1-3)Gal(b1-4)GlcNAc(b1-2)Man(a1-3)]Man(b1-4)GlcNAc(b1-4)[Fuc(a1-6)]GlcNAc", "summary_of_the_method": "as §1"}, "[4]": {"biological_target": "Gal(b1-3)GlcNAc(b1-3)Gal(b1-4)GlcNAc(b1-6)[Gal(b1-3)GlcNAc(b1-3)]Gal(b1-4)Glc", "summary_of_the_method": "as §1"}, "[5]": {"biological_target": "Gal(b1-3)GlcNAc(b1-3)Gal(b1-4)[Fuc(a1-3)]GlcNAc", "summary_of_the_method": "as §1"}, "[6]": {"biological_target": "Gal(b1-3)GlcNAc(b1-3)Gal(b1-4)[Fuc(a1-3)]GlcNAc(b1-6)[Gal(b1-3)GlcNAc(b1-3)]Gal(b1-4)Glc", "summary_of_the_method": "as §1"}, "[7]": {"biological_target": "Gal(b1-3)GlcNAc(b1-3)GalNAc", "summary_of_the_method": "as §1"}, "[8]": {"biological_target": "Gal(b1-3)GlcNAc(b1-6)Gal(b1-4)GlcNAc", "summary_of_the_method": "as §1"}, "[9]": {"biological_target": "Gal(b1-3)GlcNAc(b1-6)GalNAc", "summary_of_the_method": "as §1"}, "[10]": {"biological_target": "Gal(b1-3)GlcNAc(b1-6)[Gal(b1-3)]GalNAc", "summary_of_the_method": "as §1"}, "[11]": {"biological_target": "Gal(b1-3)GlcNAc6S", "summary_of_the_method": "as §1"}, "[12]": {"biological_target": "Gal(b1-3)[Fuc(a1-4)]GlcNAc", "summary_of_the_method": "as §1"}, "[13]": {"biological_target": "Gal(b1-3)[Fuc(a1-4)]GlcNAc(b1-2)Man", "summary_of_the_method": "as §1"}, "[14]": {"biological_target": "Gal(b1-3)[Fuc(a1-4)]GlcNAc(b1-2)Man(a1-3)[Gal(b1-3)[Fuc(a1-4)]GlcNAc(b1-2)Man(a1-6)]Man(b1-4)GlcNAc(b1-4)[Fuc(a1-6)]GlcNAc", "summary_of_the_method": "as §1"}, "[15]": {"biological_target": "Gal(b1-3)[Fuc(a1-4)]GlcNAc(b1-3)Gal(b1-3)[Fuc(a1-4)]GlcNAc", "summary_of_the_method": "as §1"}, "[16]": {"biological_target": "Gal(b1-3)[Fuc(a1-4)]GlcNAc(b1-3)Gal(b1-4)[Fuc(a1-3)]GlcNAc", "summary_of_the_method": "as §1"}, "[17]": {"biological_target": "Gal(b1-3)[Fuc(a1-4)]GlcNAc(b1-6)GalNAc", "summary_of_the_method": "as §1"}, "[18]": {"biological_target": "Gal(b1-3)[GlcNAc(b1-6)]GalNAc", "summary_of_the_method": "as §1"}, "[19]": {"biological_target": "Gal(b1-3)[Neu5Ac(a2-6)]GalNAc", "summary_of_the_method": "as §1"}, "[20]": {"biological_target": "Gal(b1-3)[Neu5Ac(a2-6)]GlcNAc(b1-4)Gal(b1-4)Glc", "summary_of_the_method": "as §1"}, "[21]": {"biological_target": "Gal(b1-3)[Neu5Ac(b2-6)]GalNAc", "summary_of_the_method": "as §1"}, "[22]": {"biological_target": "Gal(b1-4)Gal", "summary_of_the_method": "as §1"}, "[23]": {"biological_target": "Gal(b1-4)GalNAc(a1-3)[Fuc(a1-2)]Gal(b1-4)GlcNAc", "summary_of_the_method": "as §1"}, "[24]": {"biological_target": "Gal(b1-4)GalNAc(b1-3)[Fuc(a1-2)]Gal(b1-4)GlcNAc", "summary_of_the_method": "as §1"}, "[25]": {"biological_target": "Gal(b1-4)Glc", "summary_of_the_method": "as §1"}, "[26]": {"biological_target": "Gal(b1-4)Glc6S", "summary_of_the_method": "as §1"}, "[27]": {"biological_target": "Gal(b1-4)GlcNAc", "summary_of_the_method": "as §1"}, "[28]": {"biological_target": "Gal(b1-4)GlcNAc(a1-6)Gal(b1-4)GlcNAc", "summary_of_the_method": "as §1"}, "[29]": {"biological_target": "Gal(b1-4)GlcNAc(b1-2)Man", "summary_of_the_method": "as §1"}, "[30]": {"biological_target": "Gal(b1-4)GlcNAc(b1-2)Man(a1-3)Man(b1-4)GlcNAc(b1-4)GlcNAc", "summary_of_the_method": "as §1"}, "[31]": {"biological_target": "Gal(b1-4)GlcNAc(b1-2)Man(a1-3)[Gal(b1-4)GlcNAc(b1-2)Man(a1-6)]Man(b1-4)GlcNAc(b1-4)GlcNAc", "summary_of_the_method": "as §1"}, "[32]": {"biological_target": "Gal(b1-4)GlcNAc(b1-2)Man(a1-3)[Gal(b1-4)GlcNAc(b1-2)Man(a1-6)]Man(b1-4)GlcNAc(b1-4)[Fuc(a1-6)]GlcNAc", "summary_of_the_method": "as §1"}, "[33]": {"biological_target": "Gal(b1-4)GlcNAc(b1-2)Man(a1-3)[Gal(b1-4)GlcNAc(b1-2)Man(a1-6)][Gal(b1-4)GlcNAc(b1-4)]Man(b1-4)GlcNAc(b1-4)[Fuc(a1-6)]GlcNAc", "summary_of_the_method": "as §1"}, "[34]": {"biological_target": "Gal(b1-4)GlcNAc(b1-2)Man(a1-3)[Gal(b1-4)GlcNAc(b1-2)Man(a1-6)][GlcNAc(b1-4)]Man(b1-4)GlcNAc(b1-4)[Fuc(a1-6)]GlcNAc", "summary_of_the_method": "as §1"}, "[35]": {"biological_target": "Gal(b1-4)GlcNAc(b1-2)Man(a1-3)[GlcNAc(b1-2)Man(a1-6)]Man(b1-4)GlcNAc(b1-4)GlcNAc", "summary_of_the_method": "as §1"}, "[36]": {"biological_target": "Gal(b1-4)GlcNAc(b1-2)Man(a1-3)[GlcNAc(b1-4)][Gal(b1-4)GlcNAc(b1-2)Man(a1-6)]Man(b1-4)GlcNAc(b1-4)GlcNAc", "summary_of_the_method": "as §1"}, "[37]": {"biological_target": "Gal(b1-4)GlcNAc(b1-2)Man(a1-3)[Man(a1-6)]Man(b1-4)GlcNAc(b1-4)GlcNAc", "summary_of_the_method": "as §1"}, "[38]": {"biological_target": "Gal(b1-4)GlcNAc(b1-2)Man(a1-6)Man(b1-4)GlcNAc(b1-4)GlcNAc", "summary_of_the_method": "as §1"}},
  "note": "This is one part of the list.",
  "data": [
    {"binder": "DC-ASGPR S+GEE (Homo sapiens) (protein) MTRTYENFQYLENKVKVQGFKNGPLPLQSLLQRLRSGPCHLLLSLGLGLLLLVIICVVGFQNSKFQRDLVTLRTDFSNFTSNTVAEIQALTSQGSSLEETIASLKAEVEGFKQERQAVHSEMLLRVQQLVQDLKKLTCQVATINNNGEEASTEGTCCPVNWVEHQDSCYWFSHSGMSWAEAEKYCQLKNAHLVVINSREEQNFVQKYLGSAYTWMGLSDPEGAWKWVDGTDYATGFQNWKPGQPDDWQGHGLGGGEDCAHFHPDGRWNDDVCQRPYHWVCEAGLGQTSQESH", "values": [
      {"measurement": "glycan array binding signal (z-score)", "setting": "[1]", "value": -0.06},
      {"measurement": "glycan array binding signal (z-score)", "setting": "[2]", "value": 0.397},
      {"measurement": "glycan array binding signal (z-score)", "setting": "[3]", "value": 0.346},
      {"measurement": "glycan array binding signal (z-score)", "setting": "[4]", "value": -0.341},
      {"measurement": "glycan array binding signal (z-score)", "setting": "[5]", "value": -0.321},
      {"measurement": "glycan array binding signal (z-score)", "setting": "[6]", "value": -0.507},
      {"measurement": "glycan array binding signal (z-score)", "setting": "[7]", "value": -0.25},
      {"measurement": "glycan array binding signal (z-score)", "setting": "[8]", "value": -0.377},
      {"measurement": "glycan array binding signal (z-score)", "setting": "[9]", "value": 3.77},
      {"measurement": "glycan array binding signal (z-score)", "setting": "[10]", "value": -0.187},
      {"measurement": "glycan array binding signal (z-score)", "setting": "[11]", "value": -0.332},
      {"measurement": "glycan array binding signal (z-score)", "setting": "[12]", "value": -0.336},
      {"measurement": "glycan array binding signal (z-score)", "setting": "[13]", "value": -0.077},
      {"measurement": "glycan array binding signal (z-score)", "setting": "[14]", "value": -0.192},
      {"measurement": "glycan array binding signal (z-score)", "setting": "[15]", "value": -0.317},
      {"measurement": "glycan array binding signal (z-score)", "setting": "[16]", "value": -0.296},
      {"measurement": "glycan array binding signal (z-score)", "setting": "[17]", "value": 2.4},
      {"measurement": "glycan array binding signal (z-score)", "setting": "[18]", "value": -0.11},
      {"measurement": "glycan array binding signal (z-score)", "setting": "[19]", "value": -0.34},
      {"measurement": "glycan array binding signal (z-score)", "setting": "[20]", "value": -0.315},
      {"measurement": "glycan array binding signal (z-score)", "setting": "[21]", "value": -0.29},
      {"measurement": "glycan array binding signal (z-score)", "setting": "[22]", "value": -0.329},
      {"measurement": "glycan array binding signal (z-score)", "setting": "[23]", "value": -0.34},
      {"measurement": "glycan array binding signal (z-score)", "setting": "[24]", "value": -0.3},
      {"measurement": "glycan array binding signal (z-score)", "setting": "[25]", "value": -0.295},
      {"measurement": "glycan array binding signal (z-score)", "setting": "[26]", "value": -0.348},
      {"measurement": "glycan array binding signal (z-score)", "setting": "[27]", "value": -0.336},
      {"measurement": "glycan array binding signal (z-score)", "setting": "[28]", "value": 0.022},
      {"measurement": "glycan array binding signal (z-score)", "setting": "[29]", "value": 0.195},
      {"measurement": "glycan array binding signal (z-score)", "setting": "[30]", "value": -0.355},
      {"measurement": "glycan array binding signal (z-score)", "setting": "[31]", "value": -0.239},
      {"measurement": "glycan array binding signal (z-score)", "setting": "[32]", "value": -0.331},
      {"measurement": "glycan array binding signal (z-score)", "setting": "[33]", "value": -0.272},
      {"measurement": "glycan array binding signal (z-score)", "setting": "[34]", "value": -0.3},
      {"measurement": "glycan array binding signal (z-score)", "setting": "[35]", "value": -0.317},
      {"measurement": "glycan array binding signal (z-score)", "setting": "[36]", "value": -0.307},
      {"measurement": "glycan array binding signal (z-score)", "setting": "[37]", "value": -0.231},
      {"measurement": "glycan array binding signal (z-score)", "setting": "[38]", "value": -0.317}
    ]}
  ]
}
